{"source": "paper PMC7819943", "about": "“Rice protein-binding microarrays: a tool to detect cis-acting elements near promoter regions in rice”", "note": "Some of the results follow."}
{"target": "T1, OsWOX13 (Oryza sativa, UniProt Q5QMM3 1-267)", "T1 sequence": "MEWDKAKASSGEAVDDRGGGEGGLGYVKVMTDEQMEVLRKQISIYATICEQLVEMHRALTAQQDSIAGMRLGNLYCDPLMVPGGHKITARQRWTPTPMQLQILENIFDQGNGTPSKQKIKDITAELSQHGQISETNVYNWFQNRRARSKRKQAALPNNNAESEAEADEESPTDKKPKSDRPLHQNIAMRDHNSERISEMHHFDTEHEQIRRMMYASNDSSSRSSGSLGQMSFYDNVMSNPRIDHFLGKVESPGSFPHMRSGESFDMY", "assay": "protein-binding microarray (RPBM); PBS, 2% BSA, 51.3 ng/ul salmon testes DNA, 50 uM zinc acetate, 200 nM TF, 25 C, 1 h; high values mean tight binding", "conditions": "protein: recombinant; tags: N-terminal polyhistidine and DsRed monomer fusion (pET32a); label: CyDye5-dUTP incorporated in the synthesized complementary strand; 3' TTTTT single-stranded linker to array surface; dsDNA, one strand shown", "how_it_was_run": "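An Axon 4000B scanner gave the binding signal as per-feature fluorescence intensity in arbitrary units. This followed washing of a custom Agilent array that had been incubated for 1 h at 25 °C with 200 nM protein in PBS, 2% BSA, salmon testes DNA and 50 µM zinc acetate. The proteins were transcription factors fused at the N-terminus to polyhistidine and DsRed, expressed in E. coli BL21-CodonPlus and purified on Ni–NTA.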"}
{"sequence": "TCATGATTGTCAGATACATAGGATTTGTTTCTACTTAGCTCGGAGTCACCTAGTGCAG", "binding signal": "17900 fluorescence intensity (a.u.)"}
{"sequence": "ATACCACAGATAATTACTGACAAGTCAGTGCAAACCATTGCGGAGTCACCTAGTGCAG", "binding signal": "8730 fluorescence intensity (a.u.)"}
{"sequence": "TTTGCCAAAATTTGATTAATTTCGTTTGACTTTTGCCGTTCGGAGTCACCTAGTGCAG", "binding signal": "10300 fluorescence intensity (a.u.)"}
{"sequence": "AACATTAATTGATTGTGTAGAGAGGAATCGTGCGCTGTTTCGGAGTCACCTAGTGCAG", "binding signal": "46800 fluorescence intensity (a.u.)"}
{"sequence": "GCGTAAAGTTTGGATTTTGATTGAAATTGGAGATGATGTGCGGAGTCACCTAGTGCAG", "binding signal": "26000 fluorescence intensity (a.u.)"}
{"sequence": "CAGCTGCAAACTAATCAATCAATAAACAATTTAGAGGAGCCGGAGTCACCTAGTGCAG", "binding signal": "24800 fluorescence intensity (a.u.)"}
{"sequence": "GTATACAACTAATTTCAATCAATCGACATGGTTTAAACCACGGAGTCACCTAGTGCAG", "binding signal": "21000 fluorescence intensity (a.u.)"}
{"sequence": "ACCCTCCCATCAATCACTCCTATAGTATACTCGTACTATACGGAGTCACCTAGTGCAG", "binding signal": "13300 fluorescence intensity (a.u.)"}
{"sequence": "CCTTGACAGATTAATCCTACGTTTTGACCCCATATGTTTTCGGAGTCACCTAGTGCAG", "binding signal": "38400 fluorescence intensity (a.u.)"}
{"sequence": "TAGGCTAGTCATTTAAACTGACTCACAGACAAACTGTTTGCGGAGTCACCTAGTGCAG", "binding signal": "3640 fluorescence intensity (a.u.)"}
{"sequence": "AGTGAAAGCGATTATGTGATTGGAGTACAGTGAGCTTGATCGGAGTCACCTAGTGCAG", "binding signal": "12500 fluorescence intensity (a.u.)"}
{"sequence": "TTGAGTAAATTTCGTAAATTATATATACTTTGATCAAACTCGGAGTCACCTAGTGCAG", "binding signal": "9320 fluorescence intensity (a.u.)"}
{"sequence": "ATAAACATGACATTTTAAACGGGCCCTAAAATTGCTACACCGGAGTCACCTAGTGCAG", "binding signal": "8750 fluorescence intensity (a.u.)"}
{"sequence": "GGTTAATTAAAGCATGCGTTTACATATGCATGGGTGACAGCGGAGTCACCTAGTGCAG", "binding signal": "18700 fluorescence intensity (a.u.)"}
{"sequence": "ATTATTTTCTCTTTTAATTGCACTAGATCAATACTAATACCGGAGTCACCTAGTGCAG", "binding signal": "4060 fluorescence intensity (a.u.)"}
{"sequence": "AAGTAATGTTAATTTCTGGAGCCTCAGAAATAGAAATGGTCGGAGTCACCTAGTGCAG", "binding signal": "4080 fluorescence intensity (a.u.)"}
{"sequence": "GTTAATGATTGCGAAGTATAAACTACACAAGCTTTCACTACGGAGTCACCTAGTGCAG", "binding signal": "41300 fluorescence intensity (a.u.)"}
{"sequence": "CTGCAACTAAATTTTAGGATTAATTTAAGGAACTTTCGGGCGGAGTCACCTAGTGCAG", "binding signal": "11300 fluorescence intensity (a.u.)"}
{"sequence": "TCAATTAATATATAATTGGCATTGGGTTTGATCATCTCTGCGGAGTCACCTAGTGCAG", "binding signal": "50700 fluorescence intensity (a.u.)"}
{"sequence": "AAATCAATCTCAAAATTAAGTTTGAAAATTTAAAATTTAGCGGAGTCACCTAGTGCAG", "binding signal": "6880 fluorescence intensity (a.u.)"}
{"sequence": "TATTTAAATTACTAGGCTGATTATCGAATGATTGACCGGTCGGAGTCACCTAGTGCAG", "binding signal": "45900 fluorescence intensity (a.u.)"}
{"sequence": "ATCTCTGTCTCTGTCTGTCAATCTCACGCACACCAGCACACGGAGTCACCTAGTGCAG", "binding signal": "14500 fluorescence intensity (a.u.)"}
{"sequence": "CGAAATTATACGGTGATGGCATTAGTCAGAGCACGATACCCGGAGTCACCTAGTGCAG", "binding signal": "9100 fluorescence intensity (a.u.)"}
{"sequence": "ATCTGATGGACGAGAGATGAAGCAAACCTCAGCCGTCCATCGGAGTCACCTAGTGCAG", "binding signal": "11700 fluorescence intensity (a.u.)"}
{"sequence": "GGTGGGATAATTAAGTTCGGTATGAAACTTTTCTCCTCCTCGGAGTCACCTAGTGCAG", "binding signal": "6270 fluorescence intensity (a.u.)"}
{"sequence": "AATAACTCTAATTTATTAAATATCAATGCAATTATTTCTTCGGAGTCACCTAGTGCAG", "binding signal": "11800 fluorescence intensity (a.u.)"}
{"sequence": "ACTGTAACTGAACATGATGTGCACCGGGTCGTCGGCCATACGGAGTCACCTAGTGCAG", "binding signal": "10800 fluorescence intensity (a.u.)"}
{"sequence": "CTACATTATTATCTCTATATAAATTAGATATAAAGTTGCACGGAGTCACCTAGTGCAG", "binding signal": "4920 fluorescence intensity (a.u.)"}
{"sequence": "CAGAACTACTCATCACCGATGATTAATTAAGTATTAGCTGCGGAGTCACCTAGTGCAG", "binding signal": "13500 fluorescence intensity (a.u.)"}
{"sequence": "AATCCATTAATTAATGTATTGGATCCTCGTAGACAATACGCGGAGTCACCTAGTGCAG", "binding signal": "24600 fluorescence intensity (a.u.)"}
{"sequence": "CAGGTAATGGATTGATTGCAGGGTTGGGATTTGACCAGGTCGGAGTCACCTAGTGCAG", "binding signal": "51800 fluorescence intensity (a.u.)"}
{"sequence": "GTCCATAATCACCTATCAAGAAACAGAGGTTTAAGACACACGGAGTCACCTAGTGCAG", "binding signal": "3940 fluorescence intensity (a.u.)"}
{"sequence": "ATGATTTAGAGCTATTAGTGGGCTGCTATATTGACCTTGCCGGAGTCACCTAGTGCAG", "binding signal": "5700 fluorescence intensity (a.u.)"}
{"sequence": "TAAAATAGTTAATACTCAATTAATCATACATTAATACGCTCGGAGTCACCTAGTGCAG", "binding signal": "11200 fluorescence intensity (a.u.)"}
{"sequence": "ATAAACCATTAAATATGATTAATTAAGTATTAATTATTTTCGGAGTCACCTAGTGCAG", "binding signal": "12200 fluorescence intensity (a.u.)"}
{"sequence": "TTGATTAGATGCGCTGTGTGGCTTCTTGTTCAGTGACAGGCGGAGTCACCTAGTGCAG", "binding signal": "32400 fluorescence intensity (a.u.)"}
{"sequence": "GCATTAAATTAGAAAGGTGAATAGTGATCCGGTTTTGGGACGGAGTCACCTAGTGCAG", "binding signal": "15300 fluorescence intensity (a.u.)"}
{"sequence": "GTTTGATTATGTGGTCTGCATGTGCCTAGTTTGACATCAGCGGAGTCACCTAGTGCAG", "binding signal": "32700 fluorescence intensity (a.u.)"}
{"sequence": "CAAAACTAATTTTCAGGAAGAAAACCAATCTAGAATTCCGCGGAGTCACCTAGTGCAG", "binding signal": "3220 fluorescence intensity (a.u.)"}
{"sequence": "GCGGGGATTTGGAAATTTGGATGGATTTGGGAATTTGGGTCGGAGTCACCTAGTGCAG", "binding signal": "4420 fluorescence intensity (a.u.)"}
{"sequence": "GTGATTTTGACAAATGTGTACTGCAAAGTACAAACCATTACGGAGTCACCTAGTGCAG", "binding signal": "7340 fluorescence intensity (a.u.)"}
{"sequence": "TAAAATGATTGAACCCTTGCATTCCGAGAGATCCTCGCTTCGGAGTCACCTAGTGCAG", "binding signal": "45000 fluorescence intensity (a.u.)"}
